Data: article PMC4336329 (PLoS ONE, 2015)
The campaign covered roughly 310,000 compounds. About 2,200 (0.71%) showed an effect of 50% or more. Effects have a minus sign here. The list shows a part of the results.

Molecular target: human ether-à-go-go-related gene (hERG) potassium channel (human, UniProt Q12809)
Test: primary screen, population patch clamp on CHO cells stably expressing hERG

human ether-à-go-go-related gene (hERG) potassium channel, sequence (Q12809 whole entry, looked up): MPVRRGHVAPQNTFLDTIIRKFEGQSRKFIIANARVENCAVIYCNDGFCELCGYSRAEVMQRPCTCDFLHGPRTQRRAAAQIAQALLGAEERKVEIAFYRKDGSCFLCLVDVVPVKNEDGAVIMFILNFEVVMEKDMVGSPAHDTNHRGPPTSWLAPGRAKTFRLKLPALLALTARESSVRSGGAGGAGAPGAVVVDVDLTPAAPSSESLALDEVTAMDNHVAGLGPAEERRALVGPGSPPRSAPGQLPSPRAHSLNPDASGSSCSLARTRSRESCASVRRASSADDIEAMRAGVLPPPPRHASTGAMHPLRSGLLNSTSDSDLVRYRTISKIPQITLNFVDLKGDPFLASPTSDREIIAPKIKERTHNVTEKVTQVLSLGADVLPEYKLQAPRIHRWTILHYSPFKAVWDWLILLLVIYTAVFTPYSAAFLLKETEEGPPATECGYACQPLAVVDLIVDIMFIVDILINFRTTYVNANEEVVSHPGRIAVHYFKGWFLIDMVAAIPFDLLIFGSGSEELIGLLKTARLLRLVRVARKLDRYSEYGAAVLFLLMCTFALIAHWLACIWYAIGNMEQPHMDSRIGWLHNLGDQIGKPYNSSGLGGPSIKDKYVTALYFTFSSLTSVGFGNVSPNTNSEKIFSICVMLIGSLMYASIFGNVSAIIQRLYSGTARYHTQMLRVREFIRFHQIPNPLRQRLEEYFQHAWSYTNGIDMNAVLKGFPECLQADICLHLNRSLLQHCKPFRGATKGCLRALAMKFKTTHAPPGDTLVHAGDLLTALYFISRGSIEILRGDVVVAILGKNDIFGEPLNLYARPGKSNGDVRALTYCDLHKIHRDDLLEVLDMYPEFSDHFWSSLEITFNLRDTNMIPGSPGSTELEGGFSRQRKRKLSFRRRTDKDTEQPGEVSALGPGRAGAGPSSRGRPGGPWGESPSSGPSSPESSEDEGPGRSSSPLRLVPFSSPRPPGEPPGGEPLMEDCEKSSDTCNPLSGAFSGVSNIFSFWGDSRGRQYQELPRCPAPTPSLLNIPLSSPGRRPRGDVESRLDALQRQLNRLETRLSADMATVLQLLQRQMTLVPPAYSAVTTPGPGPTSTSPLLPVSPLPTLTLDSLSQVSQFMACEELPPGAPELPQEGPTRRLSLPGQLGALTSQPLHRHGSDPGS

Compound | hERG current change (%, negative = inhibition) at 1uM [%]
COc1ccc(OC)c(C(O)C2CCCCN2)c1.Cl (stereo not drawn) | 14.3
O=C(NCC1CC1)c1ccccc1Cl | 13.5
Cc1cc(C)cc(OCC(=O)Nc2ccncc2)c1 | 13.6
Cc1ccc(S(=O)(=O)NCCC(=O)N2CCCC(C)C2)cc1 (stereo not drawn) | -29.5
CC(=O)NN1C(=O)c2ccccc2NC1c1ccco1 (stereo not drawn) | 7.36
O=C(Nc1ccc(SC(F)F)cc1)c1cccc2nc3ccccc3nc12 | 9.75
Cc1ccc(NC(=O)C2CC3CCC2C3)c(Br)c1 (stereo not drawn) | 13.4
CCOC(=O)CCn1nc(-c2ccc(C)cc2)c2ccccc2c1=O | 6.09
Cc1cccc(NC(=O)CSc2nc3c(oc4ccccc43)c(=O)n2-c2ccccc2)c1 | 5.53
CS(=O)(=O)N(Cc1ccccc1)c1ccccc1C(=O)N1CCN(c2ccccc2)CC1 | 11.7
Cc1ccc2nc(-c3ccncc3)cc(C(=O)NCc3ccccc3F)c2c1 | 14.1
COC(=O)CSC(C)C(=O)Nc1nnc(C(C)C)s1 (stereo not drawn) | 6.29
N/C(=N\c1nc(CSc2ccc(Cl)cc2)cc(=O)[nH]1)Nc1cccc2ccccc12 | 7.94
Cc1ccc2c(c1)/C(=C/c1ccc(F)cc1)C(=O)N2 | 14
O=C(NCCNC(=O)c1ccc(-c2ccc(Cl)c(Cl)c2)o1)c1cnccn1 | -54.4
CCCc1nnc(NC(=O)CCC(=O)N2CCN(CCOc3ccc(C)cc3)CC2)s1 | -5.24
O=C(Cc1ccccc1)NCCS(=O)(=O)N1CCN(c2ccccc2)CC1 | 11.5
COc1cc2c(c(O)c1OC)-c1c(cc(OC)c(OC)c1OC)C[C@@H](C)[C@@H](C)C2 | -41.5
CCCc1c(O)c2ccccc2[nH]c1=O | 19.4
CC(C)(C)CN1CCC(Oc2cccc(C(=O)N3CCC[C@H]3CO)c2)CC1 | 27.5
Cc1nc2ccccn2c1C(=O)NN=C1C2CC3CC(C2)CC1C3 | -1.59
O=C(c1ccccc1)N1CCn2c1nc1ccccc12 | 9.44
O=S(=O)(Nc1cccnc1)c1cc(Cl)ccc1Cl | 15.9

Compound | hERG current change (%, negative = inhibition) at 1uM [%]
COc1ccc(/C=N/N=C2/C(=O)Nc3ccccc32)cc1O | 12.2
CCS(=O)(=O)Nc1cccc(C(=O)CC2(O)C(=O)Nc3ccccc32)c1 (stereo not drawn) | 11.9
Cc1ccc(C)n1-c1ccc(C(=O)Nc2ccccc2)cc1 | 10.7
CN(C)C(=O)Oc1ccc(OCc2cccc[n+]2C)cc1.Cc1ccc(S(=O)(=O)[O-])cc1 | 4.86
N#CCCN1CCN(S(=O)(=O)c2ccc(S(=O)(=O)N3CCCC3)cc2)CC1 | 11.4
O=C(Nc1ccc(F)cc1)c1oc2ccccc2c1NC(=O)C1CCCC1 | -2.95
CCOC(=O)C1(CCSC)NC(c2ccco2)C2C(=O)N(CC)C(=O)C21 (stereo not drawn) | 16.1
Cc1onc(-c2ccccc2)c1C(=O)Nc1ccc(S(=O)(=O)N2CCCCC2)cc1 | 12.6
COc1ccc(N2CCN(C(=O)Nc3ccccc3Cl)CC2)cc1 | 12
CO/N=C/c1ccc(Sc2ccccc2)c([N+](=O)[O-])c1 | 5.28
O=C(NCc1ccncc1)Nc1ccc(Cl)cc1Cl | 12.2
CNc1oc(-c2ccccc2)nc1C#N | 16.5
C/C(=N\Nc1nc(N2CCOCC2)nc(N2CCOCC2)n1)c1ccc([N+](=O)[O-])cc1 | 12.7
Cc1n[nH]c(=O)c2c(NC(=O)CSc3nc4ccccc4c(=O)n3-c3ccc(OC(F)F)cc3)oc(C)c12 | -11.4
CCOC(=O)c1cnc2cc(F)c(F)cc2c1N1CCN(C)CC1 | 12.4
CCOC(=O)Cc1csc(NC(=O)Cc2ccc([N+](=O)[O-])cc2)n1 | -12.2
CCOCCCN1CC(C(=O)NCCc2ccccc2)CC1=O (stereo not drawn) | 2.02
CC1CCN(CC(=O)NC2CCCCC2)CC1.Cl | 18.8
Cc1cccc(-n2ncc3c(NCCc4ccc(S(N)(=O)=O)cc4)ncnc32)c1 | 6.43
Cc1ccc(S(=O)(=O)Oc2ccccc2/C=N/Nc2ccc(C(=O)O)cc2)cc1 | 8.88
Cc1ccccc1N1C(=O)C2C3C=CC(CC3)C2C1=O (stereo not drawn) | 15.7
Cc1ccc(C)n1NC(=O)c1cccc(Cl)c1 | 12
